Here are results for one molecule from paper PMC5290273 (Nature Communications, 2017).

Chains of the proteins cited; added tags and fusions are not shown.
UniProt O00472: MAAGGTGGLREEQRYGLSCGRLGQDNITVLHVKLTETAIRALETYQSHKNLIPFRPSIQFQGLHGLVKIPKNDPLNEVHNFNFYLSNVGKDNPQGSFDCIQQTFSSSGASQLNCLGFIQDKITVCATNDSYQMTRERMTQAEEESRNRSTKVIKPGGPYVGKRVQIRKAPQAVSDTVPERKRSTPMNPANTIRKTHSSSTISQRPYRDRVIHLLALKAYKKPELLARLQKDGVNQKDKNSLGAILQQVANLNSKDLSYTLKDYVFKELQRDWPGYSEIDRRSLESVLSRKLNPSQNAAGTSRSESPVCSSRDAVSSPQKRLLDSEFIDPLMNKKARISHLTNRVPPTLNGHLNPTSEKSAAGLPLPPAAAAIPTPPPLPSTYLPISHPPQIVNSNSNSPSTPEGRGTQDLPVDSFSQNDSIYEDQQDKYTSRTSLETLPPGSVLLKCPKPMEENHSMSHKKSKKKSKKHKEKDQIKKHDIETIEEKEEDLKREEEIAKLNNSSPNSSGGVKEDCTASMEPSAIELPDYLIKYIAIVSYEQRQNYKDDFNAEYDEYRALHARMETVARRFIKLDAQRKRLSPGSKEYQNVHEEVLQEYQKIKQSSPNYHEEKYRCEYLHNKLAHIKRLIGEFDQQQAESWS

Holding throughout (assay): co-IP
Assay [1] addresses T1, FLAG-AFF4 Δ970–1,163 I334D (human) (UniProt Q9UHB7).
T1 sequence: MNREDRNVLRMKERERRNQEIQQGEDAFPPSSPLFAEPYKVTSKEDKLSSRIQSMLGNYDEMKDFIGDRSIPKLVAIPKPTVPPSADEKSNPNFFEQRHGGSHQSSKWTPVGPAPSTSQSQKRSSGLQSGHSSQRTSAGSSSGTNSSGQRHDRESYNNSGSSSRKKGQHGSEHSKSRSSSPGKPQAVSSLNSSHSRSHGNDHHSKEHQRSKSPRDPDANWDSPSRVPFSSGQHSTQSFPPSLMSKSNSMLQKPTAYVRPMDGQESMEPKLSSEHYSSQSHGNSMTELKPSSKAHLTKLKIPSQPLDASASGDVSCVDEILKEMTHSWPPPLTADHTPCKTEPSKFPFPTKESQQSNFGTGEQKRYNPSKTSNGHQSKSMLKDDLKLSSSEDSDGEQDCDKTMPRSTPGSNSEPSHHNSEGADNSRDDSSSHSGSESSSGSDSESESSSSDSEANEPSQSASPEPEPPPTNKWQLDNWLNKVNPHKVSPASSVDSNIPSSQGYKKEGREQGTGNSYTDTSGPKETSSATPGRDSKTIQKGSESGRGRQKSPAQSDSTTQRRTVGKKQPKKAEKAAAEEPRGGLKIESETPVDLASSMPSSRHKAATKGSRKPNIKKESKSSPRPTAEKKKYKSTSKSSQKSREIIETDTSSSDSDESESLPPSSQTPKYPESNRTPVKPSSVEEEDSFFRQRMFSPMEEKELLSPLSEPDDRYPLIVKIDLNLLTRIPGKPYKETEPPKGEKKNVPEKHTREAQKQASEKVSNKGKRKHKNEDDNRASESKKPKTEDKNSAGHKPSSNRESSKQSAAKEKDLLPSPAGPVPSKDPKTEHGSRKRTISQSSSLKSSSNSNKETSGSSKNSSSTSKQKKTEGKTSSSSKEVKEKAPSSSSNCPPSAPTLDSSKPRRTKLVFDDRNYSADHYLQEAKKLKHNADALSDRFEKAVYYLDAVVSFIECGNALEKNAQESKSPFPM

Assay [2] addresses T2, FLAG-AFF4 Δ970–1,163 L320D (human) (UniProt Q9UHB7).
T2 sequence: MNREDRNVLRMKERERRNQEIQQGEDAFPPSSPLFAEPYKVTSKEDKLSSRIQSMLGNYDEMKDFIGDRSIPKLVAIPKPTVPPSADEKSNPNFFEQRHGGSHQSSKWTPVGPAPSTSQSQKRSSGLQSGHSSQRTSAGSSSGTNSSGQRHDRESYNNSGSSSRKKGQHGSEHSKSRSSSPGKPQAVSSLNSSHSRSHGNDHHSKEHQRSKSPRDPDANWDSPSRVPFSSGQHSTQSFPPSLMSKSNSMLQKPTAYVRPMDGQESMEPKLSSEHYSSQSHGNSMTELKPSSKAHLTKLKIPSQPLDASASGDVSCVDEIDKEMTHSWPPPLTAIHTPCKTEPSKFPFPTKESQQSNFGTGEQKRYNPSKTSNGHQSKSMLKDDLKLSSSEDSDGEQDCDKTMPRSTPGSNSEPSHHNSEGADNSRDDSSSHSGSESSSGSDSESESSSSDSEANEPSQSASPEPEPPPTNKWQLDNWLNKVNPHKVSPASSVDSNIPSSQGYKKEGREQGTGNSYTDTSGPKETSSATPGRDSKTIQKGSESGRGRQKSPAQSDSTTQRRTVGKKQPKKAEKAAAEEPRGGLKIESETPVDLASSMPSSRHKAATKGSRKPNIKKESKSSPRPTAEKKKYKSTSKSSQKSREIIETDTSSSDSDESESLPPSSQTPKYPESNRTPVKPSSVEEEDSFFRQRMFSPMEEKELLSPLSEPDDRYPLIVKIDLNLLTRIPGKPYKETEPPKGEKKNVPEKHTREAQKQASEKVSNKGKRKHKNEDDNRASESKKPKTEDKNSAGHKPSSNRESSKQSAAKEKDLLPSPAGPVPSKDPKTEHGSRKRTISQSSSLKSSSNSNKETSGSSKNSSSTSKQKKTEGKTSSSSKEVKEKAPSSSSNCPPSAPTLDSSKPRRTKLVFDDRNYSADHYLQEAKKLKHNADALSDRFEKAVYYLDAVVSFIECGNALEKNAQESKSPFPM

The target in assay [3] is T3, FLAG-AFF4 Δ970–1,163 F347D (human) (UniProt Q9UHB7).
T3 sequence: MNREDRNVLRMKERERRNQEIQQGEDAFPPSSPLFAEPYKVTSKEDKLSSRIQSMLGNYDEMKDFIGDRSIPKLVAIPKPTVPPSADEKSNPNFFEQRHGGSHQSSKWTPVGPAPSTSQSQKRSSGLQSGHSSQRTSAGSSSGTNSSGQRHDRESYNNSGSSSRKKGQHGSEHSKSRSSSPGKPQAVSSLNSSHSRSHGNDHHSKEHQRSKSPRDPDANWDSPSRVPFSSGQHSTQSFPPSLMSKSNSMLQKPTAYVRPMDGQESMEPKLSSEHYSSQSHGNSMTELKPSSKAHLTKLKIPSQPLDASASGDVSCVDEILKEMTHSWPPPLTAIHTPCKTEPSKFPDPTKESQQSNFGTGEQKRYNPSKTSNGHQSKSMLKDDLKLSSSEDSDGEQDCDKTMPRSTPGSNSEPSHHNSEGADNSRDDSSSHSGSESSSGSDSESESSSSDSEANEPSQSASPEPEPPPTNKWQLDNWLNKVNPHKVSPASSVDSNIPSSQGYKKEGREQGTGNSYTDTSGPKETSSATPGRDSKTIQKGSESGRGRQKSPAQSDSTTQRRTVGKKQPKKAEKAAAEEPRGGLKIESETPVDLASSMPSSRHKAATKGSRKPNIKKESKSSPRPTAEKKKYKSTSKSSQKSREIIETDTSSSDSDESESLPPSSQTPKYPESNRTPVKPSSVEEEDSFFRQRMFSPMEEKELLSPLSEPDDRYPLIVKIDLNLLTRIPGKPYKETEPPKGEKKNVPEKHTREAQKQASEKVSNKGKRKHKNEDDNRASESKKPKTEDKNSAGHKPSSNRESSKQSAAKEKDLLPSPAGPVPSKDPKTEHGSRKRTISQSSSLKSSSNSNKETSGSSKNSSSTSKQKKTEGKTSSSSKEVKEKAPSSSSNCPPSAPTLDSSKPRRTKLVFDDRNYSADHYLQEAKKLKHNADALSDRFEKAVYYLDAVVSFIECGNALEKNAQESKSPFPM

The target in assay [4] is HA-tagged wild-type ELL2 (human) (UniProt O00472).

Results are given in words; binding and its absence hold for the method and conditions named. Binding seen in cells or lysates may run through a third protein. Some results given as binding are weak or reduced against the parent protein; the word gives no strength. For some of these results: Tags and fused reporters may be left off the sequences shown.

B1: ELL1, endogenous (protein, UniProt P55199 1-621)
chain: MAALKEDRSYGLSCGRVSDGSKVSVFHVKLTDSALRAFESYRARQDSVSLRPSIRFQGSQGHISIPQPDCPAEARTFSFYLSNIGRDNPQGSFDCIQQYVSSHGEVHLDCLGSIQDKITVCATDDSYQKARQSMAQAEEETRSRSAIVIKAGGRYLGKKVQFRKPAPGATDAVPSRKRATPINLASAIRKSGASAVSGGSGVSQRPFRDRVLHLLALRPYRKAELLLRLQKDGLTQADKDALDGLLQQVANMSAKDGTCTLQDCMYKDVQKDWPGYSEGDQQLLKRVLVRKLCQPQSTGSLLGDPAASSPPGERGRSASPPQKRLQPPDFIDPLANKKPRISHFTQRAQPAVNGKLGVPNGREALLPTPGPPASTDTLSSSTHLPPRLEPPRAHDPLADVSNDLGHSGRDCEHGEAAAPAPTVRLGLPLLTDCAQPSRPHGSPSRSKPKKKSKKHKDKERAAEDKPRAQLPDCAPATHATPGAPADTPGLNGTCSVSSVPTSTSETPDYLLKYAAISSSEQRQSYKNDFNAEYSEYRDLHARIERITRRFTQLDAQLRQLSQGSEEYETTRGQILQEYRKIKKTNTNYSQEKHRCEYLHSKLAHIKRLIAEYDQRQLQAWP
For B1, the binding result was “no binding” in assay [1], “no binding” in assay [2], “binds” in assay [3] and “binds” in assay [4].
